Data published in article PMC6451091.
This is one part of the list. Measured with an extract: partners may take part in the binding.

Test system: PU.1 (endogenous, THP-1 nuclear extract) + IRF8 (endogenous, THP-1 nuclear extract)
Assay: nuclear extract protein-binding microarray (nextPBM)
Settings: 20 mM HEPES pH 7.9, 100 mM NaCl, 1 mM DTT, 0.2 mg/mL BSA, 0.02% Triton X-100, 2% milk, 0.4 mg/mL salmon testes DNA; 1 h; temperature not stated; high values mean tight binding; double strand, one strand shown; sequences stand for … in GCCTAGCAC…GTGCTAGGTCTTGATTCGCTTGACGCTGCTG

Sequence	binding signal
CTGTCAGGGAACTGAAACTC	8.29 z-score
TGGCAGAGCAAGTGAAACTA	25.9 z-score
CTGGCAGGGAACTGGAACTC	-0.425 z-score
AAGAAAGAGAACTGAAAGTA	7.5 z-score
ATAAAAAGGAAATGAAAGTA	11 z-score
CTGGCCGGGAACTGAAACTC	9.76 z-score
TAAAACAGGAAGTGAAACCA	78.2 z-score
TAAAGGAGGATCTGAAACCA	9.19 z-score
CTGGCAGGGAACTGAAACCC	4.26 z-score
AGAGAGAGGAAGTGAAAGTA	37.1 z-score
TGAGAGGAGAAGTGAATCCT	0.188 z-score
CCAGAAAGGAAGTGAAACTC	33.5 z-score
GATAAGAGGAACTGCAAGCT	-1.02 z-score
CAAAATGGGAAGTGAAACTA	75 z-score
ATCATCAGGAACTGAAACTG	16.5 z-score
AAAAAAAGGAAAAGAAAGTA	0.351 z-score
TTGCAGAGGAAGTGAAACTA	65.1 z-score
AAGAGGCAGAACTGAAACTC	10.2 z-score
GATAAGAGGAACTGAAGGCT	1.5 z-score
GAAAGGAGGATGTGAAACTA	36.7 z-score

Sequence	binding signal
CTGGCAGTGAACTGAAACTC	7.59 z-score
AAATAAAGGAAATGAAAGTA	14.1 z-score
CTGCCAGGGGAGTGAAAGCA	1.33 z-score
CTTTTAAGGAACTGAAACTC	26.8 z-score
AAGGTGAGGAACTGAAACTT	18.1 z-score
CTTGTGAGGAAGTGAAACTT	48.1 z-score
CAGGAGAGGAAGTGAAACTC	60.6 z-score
AAAAAATGGAAATGAAAGTA	9.33 z-score
ACTGAAGGGAAGAGAAACTA	3.5 z-score
TGGCAGAGGAGGTGAAACTA	9.32 z-score
GAAAAGAGGAACCGAAACTT	82.1 z-score
TGAAACAGGAAGTGAAGCCA	-0.579 z-score
TAAAGGAGAAACTGAAACCA	36.2 z-score
TTGGGCAGGAACTGAAACCT	9.02 z-score
TAAAGGAGGAACTAAAACCA	-0.0269 z-score
AAAAAAAGGAAATGAAAGTA	15.2 z-score
TGAGAGGAGAAGTAAAACCT	-0.959 z-score
TGAAACAGGAAATGAAACCA	47.3 z-score
TAGAGGAGGAACTGAAACCA	26.5 z-score
TCTTTGAGGAAATGAAACCA	29.9 z-score
